# Assay results from PubChem BioAssay AID1346428 (National Center for Advancing Translational Sciences (NCATS), 2018).
# Among all 48,000 compounds or so, about 1,200 (2.5%) were called active. Inconclusive results (about 2%) are left out.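 The calls were made as follows: active = activation of at least 60% and not above a set upper limit (about 1 call in 100 departs from these limits); inconclusive = activation of 40% to 60%, or above that upper limit; inactive = activation under 40%.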 The list shows a part of the results.
# Target: Probable G-protein coupled receptor 32 (Homo sapiens) (UniProt O75388)
# Assay: qHTS for Agonists of Human Resolvin D1 Receptor DRV1; also: 0% is about no effect
# Details: CHO-K1 GPR32 beta-arrestin PathHunter luminescence, 90 min; at 76.9 µM; active compounds read high; zero percent set by DMSO-only wells
# How it was run: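 PathHunter beta-arrestin recruitment in CHO-K1 cells stably expressing ProLink-tagged GPR32. Cells were exposed to compound for 90 min at 37 C, then chemiluminescence was read after 1 h detection at ambient temperature; DMSO served as basal control.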
# Sequence of UniProt O75388 (O75388 whole entry, looked up): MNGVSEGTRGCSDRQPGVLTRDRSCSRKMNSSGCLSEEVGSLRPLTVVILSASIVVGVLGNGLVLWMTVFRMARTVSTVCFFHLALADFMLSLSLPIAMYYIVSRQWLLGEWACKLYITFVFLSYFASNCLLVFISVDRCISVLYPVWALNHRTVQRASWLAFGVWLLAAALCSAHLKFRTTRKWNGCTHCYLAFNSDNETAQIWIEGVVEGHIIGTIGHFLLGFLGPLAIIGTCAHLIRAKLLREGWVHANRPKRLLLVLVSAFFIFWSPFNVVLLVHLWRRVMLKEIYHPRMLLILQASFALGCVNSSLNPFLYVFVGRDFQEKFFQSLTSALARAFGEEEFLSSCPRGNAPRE
row,Structure (SMILES),activation
1,CCC(C)OC(=O)/C(C#N)=C/c1ccc(-c2ccc(Br)cc2)o1 (centres undefined),inactive: -2.59%
2,Cc1cc2n(n1)CCCN2C(=O)Nc1ccccc1C(F)(F)F,inactive: -17.7%
3,CCc1ccc(S(=O)(=O)c2nnn3c2nc(N(CC)Cc2ccccc2)c2cc(Cl)ccc23)cc1,inactive: 4.66%
4,CN(C)C(=O)c1ccc(S(=O)(=O)NCc2ccc(Cl)cc2)s1,inactive: -19.4%
5,CCCCN(CC)C(=O)CSc1nc2c(sc3ccccc32)c(=O)n1CCc1ccccc1,inactive: 40.5%
6,CCc1ccccc1Nc1sc(C(=O)c2ccccc2)c(N)c1S(=O)(=O)c1ccccc1,inactive: -41.5%
7,O=C(NO)c1ccccc1,inactive: 21.4%
8,COC(=O)c1scc(-c2ccc(C)cc2)c1S(=O)(=O)N1CCN(c2cccc(Cl)c2)CC1,inactive: -40%
9,O=C(O)/C=C/c1ccc(Cn2ccnc2)cc1,inactive: -0.606%
10,CCN(CCCNC(=O)Cn1ncc2c([nH]c3ccccc32)c1=O)c1cccc(C)c1,inactive: -13.2%
11,CCc1ccccc1NC(=O)Cn1c(=O)n(-c2ccc(C)cc2)c(=O)c2cc(OC)c(OC)cc21,inactive: -6.2%
12,Cn1c(=O)sc2cc(NS(=O)(=O)c3ccc(C(C)(C)C)cc3)ccc21,inactive: -13.3%
13,Cc1ccc(S(=O)(=O)c2nc(-c3cccs3)oc2N2CCC(C)CC2)cc1,inactive: -19.2%
14,CC(=O)N1CCc2c(sc3c2c(=O)n(-c2ccccc2C)c(=O)n3CC(=O)Nc2ccccc2)C1,inactive: -7.31%
15,Cc1c(C(=O)Nc2c(F)cccc2F)sc2ncn(Cc3ccccc3F)c(=O)c12,inactive: -15.9%
16,Fc1cccc(/C=N/N=C/c2cccc(F)c2)c1,inactive: 2.71%
17,COc1ccc(C(=O)NCc2cn3ccc(C)cc3n2)cc1,inactive: -4.8%
18,CCCCNC(=O)CSc1nc2cc3c(cc2c(=O)n1CCCC(=O)NCc1ccc(OC)cc1)OCO3,inactive: -16.9%
19,CN(Cc1ccccc1)c1nc2c(S(=O)(=O)c3cccc(Cl)c3)nnn2c2ccsc12,inactive: -13.9%
20,CC(C)CC(=O)NC1CC(=O)N(c2ccc3c(c2)OCCO3)C1 (centres undefined),inactive: -1.39%
21,O=S(=O)(NCCc1csc2nc(-c3ccc(Cl)cc3)nn12)c1cccs1,inactive: -1.56%

row,Structure (SMILES),activation
1,Cc1ccc2c(c1)N(C(=O)N1CCC(C(=O)Nc3cccc(F)c3)CC1)CCO2,inactive: 1.65%
2,CCC1CN(S(=O)(=O)c2cc(-c3cc(C)no3)ccc2OC)c2cc(Cl)ccc2O1 (centres undefined),inactive: -25.4%
3,COC(=O)c1ccccc1NC(=O)NCc1ccc2c(c1)CCN2C(=O)c1ccccc1,inactive: -4.37%
4,CN1CCN(c2nc3cc(C(F)(F)F)ccc3n3cccc23)CC1,inactive: 1.49%
5,O=C1CN(C(=O)c2ccc(S(=O)(=O)N3CCCC3)cc2)C(c2ccc(F)cc2)c2cc(Br)ccc2N1 (centres undefined),inactive: -14%
6,COc1ccccc1Nc1cc(C(=O)NCCCN(C)C2CCCCC2)c2ccccc2n1,inactive: -15.6%
7,O=c1c2oc3ccccc3c2n(Cc2ccccc2Cl)c(=O)n1Cc1ccc2c(c1)OCO2,inactive: -8.7%
8,CCc1ccccc1NC(=O)CN(c1cc(C(F)(F)F)ccc1Cl)S(=O)(=O)c1ccccc1,inactive: -0.113%
9,COc1cc(Nc2nc3c(S(=O)(=O)c4ccccc4)nnn3c3ccc(Cl)cc23)cc(OC)c1,inactive: -8.28%
10,Cc1cc(C)cc(NC(=O)[C@H]2O[C@@H]3OC(C)(C)O[C@@H]3[C@H]3OC(C)(C)O[C@H]32)c1,inactive: 7.63%
11,CCOC(=O)c1ccc2c(c1)N(Cc1cc(C)ccc1C)C(=O)c1ccccc1S2(=O)=O,inactive: -6.29%
12,O=C(COc1ccc(Cl)cc1)OCc1cc(=O)n2nc(C3CCCCC3)sc2n1,inactive: 11.7%
13,Cc1ccc2c(c1)N(C(=O)CCC(=O)NCc1ccccc1F)CC(C)O2 (centres undefined),inactive: -18.8%
14,Cc1ccc(CCNC(=O)c2ccc3c(c2)N(Cc2cccc(F)c2)C(=O)c2ccccc2S3)cc1,inactive: -11%
15,COc1cccc2cc(C(=O)Nc3ccc(C)cc3)c(=O)oc12,inactive: 0.602%
16,CCOC(=O)c1ccc(NC(=O)C2=C(C)C(=O)OC23CCN(C(C)C)CC3)cc1,inactive: -2.74%
17,Cc1ccc2c(=O)cc(C(=O)Nc3sc4c(c3C(=O)NCc3cccnc3)CCCC4)oc2c1,inactive: 5.51%
18,O=C(NCC(c1cccnc1)N1CCc2ccccc21)c1ccc(Cl)cc1 (centres undefined),inactive: -27.1%
19,Cc1ccc(-n2ncc(C(=O)NCCN3CCC(Cc4ccccc4)CC3)c2C2CCN(C(=O)OC(C)(C)C)CC2)cc1,inactive: -24.7%
20,CCn1cc(S(=O)(=O)c2ccccc2)c(=O)c2cc(F)c(F)cc21,inactive: -12%
21,Cc1ccc(CN(C(=O)COc2ccc(F)cc2)C2CCS(=O)(=O)C2)o1 (centres undefined),inactive: -11.9%

row,Structure (SMILES),activation
1,COc1ccc(-c2cc(C(F)(F)F)nc(SCC(=O)NC(C)c3ccccc3)n2)cc1 (centres undefined),active: 106%
2,CCOc1ccc(N(CC)C(=O)Cn2cnc3sc(C)c(S(=O)(=O)N4CCN(c5ncccn5)CC4)c3c2=O)cc1,inactive: -12.6%
3,CC(C)CCNC(=O)c1ccc2nc(Cc3ccccc3)oc2c1,inactive: -13.5%
4,Cc1cc(NS(=O)(=O)c2ccc(NC(=O)COc3cc(C)c(Br)cc3C(C)C)cc2)no1,active: 107%
5,Cc1ccc(NC(=O)C2CCCN(S(=O)(=O)c3cccs3)C2)c(C)c1 (centres undefined),inactive: -11.3%
6,COc1ccc(S(=O)(=O)N(CC(=O)Nc2ccc(Br)cc2)Cc2ccccc2)cc1,inactive: 3.29%
7,CCCN1C(C(=O)c2ccccc2)=C(OC(=O)COc2ccc(C)cc2)c2ccccc2S1(=O)=O,inactive: -65.3%
8,COC(=O)CN1C(C(=O)c2ccccc2)=C(OC(=O)c2ccccc2)c2ccccc2S1(=O)=O,inactive: -1.58%
9,Cc1ccc(NC(=O)CCCn2nc(C)c3c(C)n(-c4ccccc4)nc3c2=O)c(Cl)c1,inactive: -12.4%
10,O=C(Nc1c2c(nn1-c1ccc(Cl)cc1)CS(=O)(=O)C2)c1ccc(Br)cc1,inactive: 22.8%
11,CCCSCCCNC(=O)Cn1c(-c2cccs2)cc2ccccc21,inactive: -8.43%
12,CCOC(=O)c1cc(NC(=O)c2ccc(F)cc2)c(=O)n2c1oc1ccc(Cl)cc12,inactive: -5.97%
13,Cc1cc(O)c(CN2CCN(c3ccccc3)CC2)c2oc(=O)cc(C)c12,inactive: -13.1%
14,Cc1nc(-c2ccc(S(=O)(=O)NCc3ccccc3Cl)cc2)co1,inactive: 46.5%
15,CCN1CCN(C(=O)Cn2ncc3c4ccccc4n(Cc4c(C)cc(C)cc4C)c3c2=O)CC1,inactive: -16.8%
16,CCCn1c2ccccc2c2cnn(CC(=O)N3CCCC(C(=O)OCC)C3)c(=O)c21 (centres undefined),inactive: -12.1%
17,Cc1ccc(C(=O)Nc2cnc3ccccn3c2=O)cc1,inactive: -8.4%
18,CCCCN(CCCC)C(=O)c1c[nH]c2ccc(S(=O)(=O)Nc3cccc(Cl)c3C)cc2c1=O,inactive: -11.4%
19,CCC1=C(C)CN(C(=O)NCCc2ccc(S(=O)(=O)NC(=O)NC3CCC(C)CC3)cc2)C1=O (centres undefined),inactive: 47.9%
20,COC(=O)CN1C(=O)CSc2ccc(S(=O)(=O)Nc3ccc(C)c(Cl)c3)cc21,inactive: -6.99%
21,O=C(Cc1ccc(-c2ccccc2)cc1)NCCS(=O)(=O)N1CCN(c2ccccc2F)CC1,inactive: -25%

row,Structure (SMILES),activation
1,COc1cccc(NC(=O)C2CCCN(c3ncnc4onc(C)c34)C2)c1 (centres undefined),inactive: 11.3%
2,O=C(Nc1ccccc1C(=O)N1CCCCC1)c1nsc2ccccc12,inactive: -26.8%
3,CCc1ccc(NC(=O)c2cc(=O)c3ccc(C)c(C)c3o2)cc1,inactive: -14.4%
4,COc1ccc(NC(=O)CNC(=O)Cn2ccc3ccccc3c2=O)cc1OC,inactive: -1.65%
5,CNC(=O)c1cnc2sc(N3CCC(C)CC3)nn2c1=O,inactive: -8.74%
6,CCCCCOc1ccc(/C=C/C(=O)Nc2sc3c(c2C(=O)OCC)CCC3)cc1OC,inactive: 12.1%
7,O=C(Nc1ccc(F)c(F)c1)c1cc(S(=O)(=O)NC2CCCC2)ccc1F,inactive: -12.3%
8,CN1CCN(c2cc3c(nn2)Oc2ccccc2N3C)CC1,inactive: 0.609%
9,Cc1cccc(N2CCN(CCCNc3ncnc4onc(-c5ccc(F)cc5)c34)CC2C)c1 (centres undefined),inactive: -4.28%
10,COc1cccc(C(=O)Nc2ccc3nc(SCCOc4ccccc4)sc3c2)c1,inactive: 4.56%
11,O=C(CCNS(=O)(=O)c1ccc2c(c1)CCN2C(=O)C1CC1)Nc1ccc(OC(F)(F)F)cc1,inactive: 29.2%
12,CCC(C)NC(=O)Cn1ccc2cc(S(=O)(=O)N3CCCCCC3)ccc21 (centres undefined),inactive: 12.2%
13,CCc1ccc2oc(-c3cc(NC(=O)c4cccs4)ccc3Cl)nc2c1,inactive: 1.64%
14,CC(C)CCNc1nc2c(-c3ccccc3)nnn2c2ccccc12,inactive: 10.3%
15,Oc1ccc(OCc2ccccc2)cc1,inactive: -16.6%
16,Cc1ccc(C(=O)CSc2nc3cc(C(=O)NC4CCCC4)ccc3c(=O)n2CC2CCCO2)c(C)c1 (centres undefined),inactive: 4.24%
17,COc1cccc(NC(=O)c2oc3ccccc3c2NC(=O)c2ccccc2C)c1,inactive: -23.4%
18,O=C(CC1N=C2c3ccccc3N=C(SCc3cccc(F)c3)N2C1=O)NCc1cccs1 (centres undefined),inactive: -14.7%
19,COc1cccc(-c2cc(C(=O)Nc3cnn(Cc4ccc(Cl)cc4Cl)c3)no2)c1,inactive: -2.68%
20,CCOc1ccc(CNC(=O)c2ccc(CSc3nc4ccncc4n3Cc3ccc(F)cc3)cc2)cc1,inactive: -20.2%
21,Cc1nn(-c2ccccc2)c2nc(C3CC3)cc(C(=O)Nc3cccc(F)c3)c12,inactive: -3.77%
